According to the antibiotic and cytotoxicity screens of Wong et al. (2023):
The list shows a part of the results.

These compounds were tested on HepG2 (assay: cytotoxicity call (relative viability < 0.9)). Settings: 10 µM.

SMILES | cytotoxicity call
OC[C@H]1O[C@H](n2cnc3cncnc32)[C@@H](O)[C@@H]1O | active
Cc1ccc(S(=O)(=O)N(C)C[C@H]2Oc3ccc(NC(=O)c4ccncc4)cc3C(=O)N([C@@H](C)CO)C[C@@H]2C)cc1 | inactive
C[C@@H]1CN([C@@H](C)CO)C(=O)c2cc(NC(=O)Nc3cccc4ccccc34)ccc2O[C@@H]1CN(C)S(=O)(=O)c1ccc(Cl)cc1 | inactive
C[C@@H]1CN([C@H](C)CO)C(=O)c2cc(NC(=O)Nc3ccc(C(F)(F)F)cc3)ccc2O[C@@H]1CN(C)S(=O)(=O)c1ccc(Cl)cc1 | active
C[C@@H]1CN([C@H](C)CO)C(=O)c2cc(NC(=O)CCCN(C)C)ccc2O[C@@H]1CN(C)Cc1ccc2c(c1)OCO2 | inactive
C[C@H]1CCCCO[C@@H](CN(C)C(=O)Nc2ccc(C(F)(F)F)cc2)[C@@H](C)CN([C@@H](C)CO)C(=O)c2cc(NC(=O)c3ccncc3)ccc2O1 | inactive
C#CCN(C)C1CCN(C(C)=O)CC1 | inactive
Cl.O=C(Nc1ccccc1)OCC(CN1CCCCC1)OC(=O)Nc1ccccc1 (configuration not stated) | active
O=S1(=O)C[C@H](NCCO)[C@@H](O)C1 | inactive
Cc1ccc(S(=O)(=O)Nc2ccc3c(c2)C(=O)N([C@@H](C)CO)C[C@@H](C)[C@@H](CN(C)S(=O)(=O)c2ccc(F)cc2)O3)cc1 | inactive
COc1ccc(CN(C)C[C@H]2Oc3ccc(NS(=O)(=O)c4cn(C)cn4)cc3C(=O)N([C@@H](C)CO)C[C@H]2C)cc1 | inactive
COCC#Cc1cnc2c(c1)C(=O)N([C@@H](C)CO)C[C@H](C)[C@H](CN(C)C(=O)c1ccc3c(c1)OCO3)O2 | inactive
